Some of the results follow. At the low end of the ranking the order means little. Measured with an extract: partners may take part in the binding.

Consider 93 sequences from PMC10726135.

The experiment has as its target T1, HNF4alpha2 (COS-7 nuclear extract) (UniProt P41235).
T1 sequence: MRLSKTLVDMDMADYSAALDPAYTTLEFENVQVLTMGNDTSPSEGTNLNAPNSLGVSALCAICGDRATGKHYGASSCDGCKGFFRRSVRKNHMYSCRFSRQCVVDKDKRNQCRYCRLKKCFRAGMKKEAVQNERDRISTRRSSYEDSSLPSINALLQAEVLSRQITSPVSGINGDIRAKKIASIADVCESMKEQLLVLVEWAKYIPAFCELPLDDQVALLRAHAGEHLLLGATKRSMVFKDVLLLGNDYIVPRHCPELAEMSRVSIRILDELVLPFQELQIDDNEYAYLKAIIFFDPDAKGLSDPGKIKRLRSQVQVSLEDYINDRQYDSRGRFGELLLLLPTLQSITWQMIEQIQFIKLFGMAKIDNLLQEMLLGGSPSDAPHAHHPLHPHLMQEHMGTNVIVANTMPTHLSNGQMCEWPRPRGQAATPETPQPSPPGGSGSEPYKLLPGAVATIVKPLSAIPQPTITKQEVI
The experiment can be described thus: protein-binding microarray. Particulars: COS-7 nuclear extract on double-stranded Agilent 4x180k PBM; binding buffer, salt, pH and temperature not given; high values mean tight binding; double strand, one strand shown; sequences stand for … in …GCCTAGGGAGATTAGAGTATCGGTCGA
As for TAAGAAAATGAAAACACAGCTCACCACCTA, the binding signal (log2 normalized intensity) was -1.39.

As to CTATTAGTGGTTAAGTTTTCGAGGAGTCAA, the binding signal (log2 normalized intensity) amounted to 1.49.

Regarding AAAGGCAGGCAGTGGAGGGCTCCCTTTAGT, the binding signal (log2 normalized intensity) was -1.08.

On to CAGATAATTCTTTGCTGTGGTAGGCTGTCC, for which the binding signal (log2 normalized intensity) amounted to 2.29.

As for CAGAGAAAGAGAGAGTTAGTTCTGCAAACA, the binding signal (log2 normalized intensity) is -1.14.

As to GCTGCAAAATTTGAACAAAAAAAGAAGAGC, the binding signal (log2 normalized intensity) is -1.07.

As to TGGATTGTGTTGCACTGTTTGCATAAAGTT, the binding signal (log2 normalized intensity) was determined as 1.7.

Consider AGTCCTGACCTTGGACTCTGCCCTTGGCCT, for which the binding signal (log2 normalized intensity) is 5.81.

As to TGTTACTTATAAATAATCTCAACCATACAA, the binding signal (log2 normalized intensity) was -0.991.

In the case of TGTGCACACTTAGAAAATGCCCTCAATCAA, the binding signal (log2 normalized intensity) worked out at 1.54.

As to CAAGGGTCAATCCTCTCTTTGGAATGTGCA, the binding signal (log2 normalized intensity) came to 2.3.

With CCTAACCACCTGACCACAACACACAAGAAC, the binding signal (log2 normalized intensity) is -1.11.

Consider TCTCACTGACTCACGGCAGCTTGTACCCTT, for which the binding signal (log2 normalized intensity) amounted to 2.43.

Turning to TGATAGCCATCTGGTGGACTTTGCTCTGCT, the binding signal (log2 normalized intensity) worked out at 7.44.

As for GGAAGACTTCATTCAGGTAGCAGGCCTCAG, the binding signal (log2 normalized intensity) was -1.2.

On to CCCACCAGGGGGAGGCTCAGAGTCTGTGGA, for which the binding signal (log2 normalized intensity) was -1.02.

Turning to CTTCATCAATCAGCCTGATACCAGATCCTT, the binding signal (log2 normalized intensity) was -1.03.

For AGCTGGGAGACCACTGGTGTAAGCTCTGGA, the binding signal (log2 normalized intensity) is -1.05.

In the case of CAGACTTTCCCCCTATTTCCCTCTGTGCCC, the binding signal (log2 normalized intensity) came to 3.5.

Turning to GACAAACCAGTCCCATCTGTGCTCATTATT, the binding signal (log2 normalized intensity) is -0.123.

For ATTACTCCCACCGTGTGTGCACTTTAAATT, the binding signal (log2 normalized intensity) stood at 1.96.

As for TCCTGGGTCCACCGTGCGCAAACACACCCA, the binding signal (log2 normalized intensity) is -1.11.

CCCCTTTGAAGTCTGCCCTCCATGTAACCC: the binding signal (log2 normalized intensity) is 3.54.

For TTAAATCCTCGAAGAGTTTGAACTATGTAC, the binding signal (log2 normalized intensity) is 3.73.

Regarding TGGGATGAGAGAGCCCCTGTGATACAACGG, the binding signal (log2 normalized intensity) is -1.21.

As to AGGACTTCTAGAGTGAGCCATTTATCAGGG, the binding signal (log2 normalized intensity) is -1.07.

Consider AGCTTGGGTTCACATTCCAGCTCTGTGACT, for which the binding signal (log2 normalized intensity) is -1.2.

For the sequence GGAAAGGGGGTTTGCAACCTTTGATAACCT, the binding signal (log2 normalized intensity) worked out at 2.12.

On to CCAGATTCCAGCCTCCTGCTCTGGGCTTTC, for which the binding signal (log2 normalized intensity) was -1.14.

As to GGGTCCAAAGAACATTGCATTCCTTTGTTT, the binding signal (log2 normalized intensity) came to 1.55.

With CAATCTGGATTGTACTGTGTCTTGATCTTG, the binding signal (log2 normalized intensity) is 1.9.

For ATGCTAAAGTCTACATTCTAGATGACCCCT, the binding signal (log2 normalized intensity) is 5.66.

As for GACAAAGGCCGCGCCCGCCCGCGCCGGCCT, the binding signal (log2 normalized intensity) was -1.14.

On to ACAGCACTTTGGCGTGCTGTGTACTTTGAA, for which the binding signal (log2 normalized intensity) worked out at 4.15.

Turning to TTCTTGACCTGCGTAGCCCAAAGGTCAGTC, the binding signal (log2 normalized intensity) came out at 4.46.

Regarding GACATTCCTTCAGCGTGAACTTTGACATGA, the binding signal (log2 normalized intensity) worked out at 5.5.

In the case of ACCTCCCCCCACACCATTAGAGAACATGTA, the binding signal (log2 normalized intensity) worked out at 4.76.

For GACCAAGGGTCAGTTTGAAATTAGGCAATA, the binding signal (log2 normalized intensity) worked out at 1.43.

With CATGGATTTAGATAAGAGGCAGTCCTGGCT, the binding signal (log2 normalized intensity) was -1.11.

TGCTGGGCCCATTTTCCCATGGTCTGTAGA: the binding signal (log2 normalized intensity) was 0.143.

Regarding ATTTTACTCACCCCTTGCTGAGTGGAAAAA, the binding signal (log2 normalized intensity) was determined as 0.782.

For the sequence CCTTTGGCCTTTACCTGTTACTTATAAATA, the binding signal (log2 normalized intensity) came to 1.06.

As to CTTTGTTCTCCGGGTTCTGCGCAGGGAGGA, the binding signal (log2 normalized intensity) came out at 0.767.

As for CCTTTCTACTGCCAGCCAGGGCCACCCATC, the binding signal (log2 normalized intensity) is -1.02.

As for CCTCTCAAACAAAAATGATGCTACTGGAGG, the binding signal (log2 normalized intensity) was -1.14.

For TAGAACCGGGGAGATACTGTAAACCAGCAG, the binding signal (log2 normalized intensity) is -1.05.

Consider ACTGAAAAAGGGGACCGGCCTTTCCCGGCT, for which the binding signal (log2 normalized intensity) was -1.12.

With CTCTGCAAATTTGCCTTGTCCTTAGACAGT, the binding signal (log2 normalized intensity) was found to be 1.16.

For TTTTGAGTTTCTGATTAGCCTTTCCAAAGG, the binding signal (log2 normalized intensity) was determined as 1.29.

Regarding AAATTCCAGCAGGAATTGATATGTTAGTCT, the binding signal (log2 normalized intensity) is -0.777.

In the case of CCCCTGAAATATCATTATCTTGATCAGAAA, the binding signal (log2 normalized intensity) stood at 0.475.

With TCTCAGGGGCCTTGCAATGAGGCGACATCA, the binding signal (log2 normalized intensity) is -0.851.

As to TGGGTGGATTTGGAGATCAGAGTCCAGCTG, the binding signal (log2 normalized intensity) amounted to 2.81.

Take TAGGACCTTTGAACCAGAGAAGATTCCAGA: the binding signal (log2 normalized intensity) was determined as 1.85.

ACAGGAGCCCAGAGACAGTGGAATCTACAG: the binding signal (log2 normalized intensity) was -1.14.

For AGAGCTTAAAAGCCCAACACGGGCGAAAAA, the binding signal (log2 normalized intensity) is -1.09.

Turning to AATCCTCTGGTCTTTGCCCCAGCTCGCTCA, the binding signal (log2 normalized intensity) was found to be 1.84.

Regarding GAGAGTCCACTCTCCTATCTTTCCCTCCAC, the binding signal (log2 normalized intensity) worked out at 0.0293.

With TCTAAGATTGGCCCTGATAATCAATCCAGC, the binding signal (log2 normalized intensity) was -0.941.

Regarding CTTTGAACCCCACACCTCCCTTGCACCAGT, the binding signal (log2 normalized intensity) stood at 3.43.

GTAGTGGGGAGGGCATGGACTTTGGAATTA: the binding signal (log2 normalized intensity) is 7.37.

Turning to AAACCAACCTTTGATCATTCCTGCACAGGA, the binding signal (log2 normalized intensity) worked out at 2.97.

Turning to AAAGCTGTCTACAAACACAGAAGTGGACCT, the binding signal (log2 normalized intensity) worked out at 3.36.

For the sequence TCAAGGCAACTTTGGGCCAAATATTTATGG, the binding signal (log2 normalized intensity) was 0.826.

As for CTGATAGCATAAAGCTAGGAGACAACACCT, the binding signal (log2 normalized intensity) was -1.03.

With CTTACGCCGGCCCGGTGCGCTGGCCTTGCT, the binding signal (log2 normalized intensity) is -0.997.

For the sequence GGACCGCAGGGGGCTCCCGGACCCTGACTC, the binding signal (log2 normalized intensity) stood at 0.458.

For CTTTTGGTATGCAAGGCATGGTGCTTCGCA, the binding signal (log2 normalized intensity) came to 1.26.

Take TTATCTACCAGGATGTGTGATCTTGGGTAA: the binding signal (log2 normalized intensity) turned out to be 1.31.

Turning to GGTTGGCTCTGAAGCAAGGATCAAAGTCAC, the binding signal (log2 normalized intensity) came to 2.1.

Turning to GATTCCACACTGGCTAGATAAGGCTGAAAC, the binding signal (log2 normalized intensity) was -1.13.

With TTGCCAAGTCCTTCCCAAACTATAGATTTG, the binding signal (log2 normalized intensity) is -1.06.

Take AGGGCCCGCTGATCCCGGGAGGGAGAGAAG: the binding signal (log2 normalized intensity) is -1.15.

Regarding CTGGCCAGAAGGTCAGAGATCAGGTCTCTT, the binding signal (log2 normalized intensity) was determined as 0.804.

As to GTAATGAAAGGAAATCATTCCAGAAAGACA, the binding signal (log2 normalized intensity) was -1.12.

For GAGGGATTTTCAGTATACTGACTTATCAGG, the binding signal (log2 normalized intensity) was found to be 0.535.

For the sequence TTGGAATCAAACAGATGTAGACATTGGAAT, the binding signal (log2 normalized intensity) worked out at 2.94.

On to AAAGCTCAGATTGCCTAAAGGGGATTTTCT, for which the binding signal (log2 normalized intensity) was -1.11.

Turning to GACCCGCCGCCCGAGGTCACTGTATGCCCG, the binding signal (log2 normalized intensity) was found to be 2.18.

With GGGAGTCCTGGGCGTTGCTCTCCCACCCCG, the binding signal (log2 normalized intensity) amounted to 3.15.

For GGGAGATTCCTGACATTCAGTCTTTGTCTT, the binding signal (log2 normalized intensity) came to 0.983.

Turning to CTCAGGCACACAAAAAAAACCACTCTTATC, the binding signal (log2 normalized intensity) was -1.07.

For CTACCCTTCATCTTCAATACAGAGTCCAAA, the binding signal (log2 normalized intensity) was 3.11.

Turning to TCCCAACAGGAGATTACTTCAAGGCTGGAG, the binding signal (log2 normalized intensity) was -1.14.

In the case of TCTTGCAGTCCACATTTCTGAGCTGTGGAA, the binding signal (log2 normalized intensity) is -0.996.

In the case of GCAAGACTTCTTCAGGGAGACTTCCAGGGA, the binding signal (log2 normalized intensity) is -0.792.

In the case of ACCTATGAGACATTTTGTCTTTTCTCCCCT, the binding signal (log2 normalized intensity) was found to be 2.6.

Take AAATCAATCAAACTCTCTGTGGATGTATGT: the binding signal (log2 normalized intensity) came to 2.27.

As for TAAGACATGCTCGCAGCTGCATAGATAAGA, the binding signal (log2 normalized intensity) was -1.11.

Regarding GAGCAAAGATCATCTGGTGGCTATCAAGCA, the binding signal (log2 normalized intensity) is -1.17.

On to TTGAAGAGCACAGGGTCAGCAGATCTTTGT, for which the binding signal (log2 normalized intensity) was 0.32.

For the sequence TCCCTTGCTCCACCCTTCTATCCCCTTATC, the binding signal (log2 normalized intensity) is 2.8.

On to TGCAGACAGTCCCTCCTCCAGCATAGGCTA, for which the binding signal (log2 normalized intensity) is -1.1.
